Source: the supplement of paper PMC3334620
In all, about 33,000 sequences were measured (“E-score (-0.5 to 0.5)”: median about -0.01, highest 2% from about 0.26 on). Some of the results follow.

Molecular target: Ste12 (UniProt P13574)
Experiment: PBM E-score (8-mer binding enrichment) (E-score (-0.5 to 0.5)); higher = stronger / more preferred TF binding; most listed sequences are background and not binding sites
Conditions: protein concentration: 200 nM; construct: GST-DNA-binding domain
Method in brief: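 E-scores (a modified Wilcoxon-Mann-Whitney statistic) were assigned by the Universal PBM Analysis Suite to every ungapped eight-base word pooled with its reverse complement. The input came from universal all-10-mer Agilent arrays made double-stranded by primer extension and probed with GST-tagged yeast transcription factors at about 100-200 nM. Fluorescent anti-GST detected bound protein, and masliner normalised the scans.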

| Sequence | PBM E-score |
| --- | --- |
| ATTAAAGC | 0.0638 |
| CAGCGCTC | -0.114 |
| TCACTCCA | -0.00159 |
| CGGTCAGA | 0.0408 |
| ATCGCCGA | -0.038 |
| AGTCCCCA | -0.214 |
| AAAAGGGT | 0.0448 |
| TCGGATAA | 0.182 |
| TCTTATAA | 0.201 |
| TACCCGTA | -0.132 |
| CTCCTACC | -0.12 |
| CAGCCTGG | 0.00817 |
| ATATCGGA | 0.0839 |
| GTACGGAA | 0.141 |
| ATATCCGC | 0.0453 |
| AGTTGTTC | 0.0935 |
| CAAAAAGG | 0.0796 |
| CTAATGTC | 0.00771 |
| AGACTGTG | -0.00808 |
| ACGGGCAT | 0.0722 |
| GCTAGAGC | -0.172 |
| GCAGGGAC | -0.134 |
| GAACGCTA | -0.179 |
| GGGCAAAA | 0.2 |
| GTATAGCA | 0.0325 |

| Sequence | PBM E-score |
| --- | --- |
| CCTTCCAA | -0.0208 |
| CATAGGCG | -0.0841 |
| TACACCTA | 0.134 |
| CACAACAC | 0.0823 |
| CAGTCCGG | -0.191 |
| ATTGCTCC | -0.0635 |
| CCCTTTTC | 0.163 |
| AGAATCCC | 0.0724 |
| CTCGGGGC | -0.0396 |
| CTCCATTC | 0.0255 |
| CACAGTAC | 0.0938 |
| CTACGGTC | -0.294 |
| AAATCATT | -0.0422 |
| AAAGATTT | 0.137 |
| CATTCGCC | -0.00661 |
| CCTGACCG | -0.112 |
| CGTTATCC | 0.00703 |
| CAACTCTG | 0.105 |
| AACAGACC | 0.0369 |
| CTCGGATC | -0.0575 |
| GCATATAC | -0.0634 |
| ACGCGGTA | -0.0724 |
| GTTCAGTA | -0.0836 |
| ACCTAGCC | -0.201 |
| AGGCTGTG | -0.13 |

| Sequence | PBM E-score |
| --- | --- |
| AACCCGGA | 0.11 |
| ATGCCATC | 0.00054 |
| CCGGTGCC | -0.186 |
| AGATACTA | -0.147 |
| AGGCCCTA | -0.2 |
| CACTTGGA | 0.108 |
| AGAGTCAC | -0.268 |
| ACTAGTAA | 0.114 |
| CAGGTAGG | -0.123 |
| GAACAGCC | -0.185 |
| ACATTCGG | 0.129 |
| TGACTACA | -0.0181 |
| AACCATAC | 0.0224 |
| CAACTGCG | -0.196 |
| CTCCCTCC | -0.0337 |
| GAGCAAAA | -0.00217 |
| CACTACGC | -0.207 |
| ATCCAGGA | -0.191 |
| GAGAAAGA | 0.0892 |
| TCTAGGAA | 0.0024 |
| AATATTAT | 0.24 |
| CGTTAACC | -0.0977 |
| CGAAAACC | 0.0575 |
| GACTGAAA | 0.241 |
| AGCCATCA | 0.0611 |

| Sequence | PBM E-score |
| --- | --- |
| CTACGTGA | -0.19 |
| CCCAACTA | 0.0883 |
| CCCGAGAG | -0.0799 |
| ATAGCTGC | -0.0579 |
| GCGGGCAA | 0.105 |
| AATTCGCC | 0.0264 |
| CATTCGTC | 0.0844 |
| GGTTGGCA | -0.129 |
| CTAAGTCA | 0.0104 |
| ATTTGCGC | 0.0884 |
| GATCCCAC | -0.0104 |
| AATCTTAG | 0.0994 |
| AGTGTTAT | 0.01 |
| GTAGATGA | 0.186 |
| TGGATCCA | -0.112 |
| GGCGAAAC | 0.191 |
| AAAGAGGG | -0.15 |
| AGCGCTAC | -0.0647 |
| CTGCCATA | 0.142 |
| AATCTAAC | 0.0293 |
| TAACCATA | 0.139 |
| AGCATATC | -0.0273 |
| GCGTTTGA | 0.0907 |
| AATATTGT | 0.157 |
| ACTACGTA | -0.225 |

| Sequence | PBM E-score |
| --- | --- |
| CCCATCTA | -0.0575 |
| ACACCATA | 0.107 |
| ATGATCCA | -0.0872 |
| CCAGCTAG | -0.236 |
| AGAAGAAG | 0.152 |
| CTCAGGCA | 0.00132 |
| ATACCGCA | 0.0493 |
| CTGGTCCA | -0.0563 |
| CCTGTGCC | -0.257 |
| GATAGCGA | 0.00939 |
| CCGGATCA | 0.0914 |
| GTTGGCGA | -0.0745 |
| AATACGAT | 0.0214 |
| CCGATGCA | -0.0447 |
| ATACGCGA | 0.0137 |
| CAGTCTCG | -0.185 |
| CTCTACTA | 0.0149 |
| ATACAGGG | 0.0509 |
| GAACCTAC | -0.0453 |
| ACATCGGG | 0.0481 |
| ACTTAGTA | 0.0058 |
| CGCGGTCA | 0.0265 |
| ACTTACAG | 0.0476 |
| GTACTAGA | 0.0568 |
| AAGCCTGA | -0.265 |

| Sequence | PBM E-score |
| --- | --- |
| CTTGCAAC | 0.083 |
| GCTGACAA | 0.0588 |
| AAAATCCC | 0.157 |
| AGTACGTG | -0.183 |
| GGTGCCCA | -0.108 |
| ATCAACGC | -0.0489 |
| ATACAGAG | -0.0452 |
| GCCGCAAC | 0.159 |
| AGAAAGCA | 0.0992 |
| TGAAAACA | 0.162 |
| AACACAAG | 0.06 |
| GGTAGTAC | -0.0411 |
| GACATCAA | 0.0551 |
| CTCCCGCA | 0.0227 |
| ACCCACCC | 0.314 |
| ACTTGTGA | -0.00066 |
| AAGGTATG | -0.06 |
| ATTCGAGA | 0.128 |
| AGTCCCTC | -0.18 |
| GGAAGGAA | 0.0976 |
| AGCTAGCC | -0.123 |
| CCTCAACC | -0.198 |
| CTCTCGGC | -0.0334 |
| AAGTGGGA | 0.175 |
| ACTCCGTC | -0.0755 |

| Sequence | PBM E-score |
| --- | --- |
| GCCCGAAC | -0.0139 |
| CTGACCCC | -0.329 |
| ACCGTTGA | -0.134 |
| ACCGTACT | 0.036 |
| AATCCTCT | -0.194 |
| CACTTCAG | -0.198 |
| ACACTTAT | 0.132 |
| CTCAACAC | 0.103 |
| CAGGCGGC | -0.244 |
| CATATCGA | 0.123 |
| GGTTGGGA | -0.0571 |
| CGGCTTGC | 0.219 |
| AACACAGC | 0.186 |
| ATCTATAC | 0.0285 |
| CCACTCCC | 0.0138 |
| GAGGCATA | -0.103 |
| CATTTCAA | 0.214 |
| GCTGGAAA | 0.00555 |
| AGGAATAG | 0.0361 |
| CTCGGCCC | -0.256 |
| ACTCACAG | 0.0124 |
| CTCCGATC | -0.268 |
